TGI and GI50 data for three molecules are collected here from PubChem BioAssay (NCI).

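Briefly, cells in 96-well plates were exposed to five compound concentrations for 48 h, and endpoints were estimated by linear interpolation. Abbreviation: GI50, concentration required for 50% inhibition of growth.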 The source holds more than one record for some entries. The list is limited to them. There may be further records. For some assays here: A record mostly stands for its own series of concentrations, which the source does not state; a value can be the end of its range. For some assays here: The values listed for one entry repeat one measurement in other runs, samples, wells, individuals or studies. Brackets tell where a record comes from. A, B and so on number the origins entry by entry.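 The concentration for full growth arrest is given as TGI.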

Some test systems named below: RPMI-8226 leukemia; EKVX NSCLC; SF-539 CNS; NCI-H522 lung; SK-MEL-2 melanoma; MCF7 breast; NCI-H23 lung; K-562 leukemia; RXF 393 renal; SNB-19 CNS; MALME-3M melanoma; SN12C renal; HOP-92 NSCLC; OVCAR-8 ovarian; NCI-H460 lung; SW-620 colon; COLO 205 colon; U251 CNS; SK-MEL-28 melanoma; OVCAR-3 ovarian; SR leukemia; SNB-75 CNS.
Holding throughout (experiment): DTP human tumour cell line panel, 48 h

The TGI is the concentration giving total growth inhibition. The low end stands for more potent growth arrest, the high end for less potent growth arrest. A word on the GI50: it is the concentration at which growth is held to half of that of the control. As for `CCCCCCCCCCS(=O)CC(CO)NC(=O)/C=C/c1c(C)[nH]c(=O)[nH]c1=O` (stereo unspecified), the TGI with RPMI-8226 leukemia was 7.94 µM and > 100 µM; in the test with EKVX NSCLC, 5.38 µM and 74 µM; in the test on SF-539 CNS, 2.49 µM and 30.3 µM; with NCI-H522 lung, 540 nM and 26.3 µM; in the test on SK-MEL-2 melanoma, 3.83 µM and > 100 µM; in the test on MCF7 breast, 3.88 µM and > 100 µM. The TGI in the test with NCI-H23 lung is 3.07 µM and > 100 µM; with K-562 leukemia it was 7.18 µM and > 100 µM; in the test with RXF 393 renal, 2.56 µM and 31.1 µM; in the test with MALME-3M melanoma, 4.18 µM and 58.2 µM; in the test with SN12C renal, 2.06 µM and 32.6 µM; in the test with HOP-92 NSCLC, 1.65 µM and 30.7 µM. The TGI in the test with OVCAR-8 ovarian is 35.1 µM [1 test] and 1.23 µM [mean of 5 tests]; with SW-620 colon, 9.31 µM and > 100 µM; in the test on COLO 205 colon, 1.39 µM and 14.7 µM; in the test with U251 CNS, 1.5 µM and > 100 µM; in the test with SK-MEL-28 melanoma, 9.07 µM and > 100 µM; in the test on OVCAR-3 ovarian it was 32.8 µM [1 test] and 1.87 µM [mean of 5 tests]. In addition, the GI50 in the test on SNB-19 CNS was 11.9 µM [1 test] and 136 nM [mean of 3 tests]; in the test with OVCAR-8 ovarian, 19.3 µM [1 test] and 178 nM [mean of 5 tests]; in the test on NCI-H460 lung it was 3.81 µM [1 test] and 90.3 nM [mean of 5 tests]; in the test with OVCAR-3 ovarian, 16 µM [1 test] and 313 nM [mean of 5 tests].
Regarding `C[C@@]1(C(=O)Nc2ccc(F)nc2)CCCN1c1nc(Nc2cc(C3CC3)[nH]n2)c2cccn2n1`, the GI50 with K-562 leukemia was 398 nM [sample A, mean of 2 tests] and 12.8 µM [sample B, 1 test]; with SR leukemia it was 319 nM [sample A, mean of 2 tests] and 4.31 µM [sample B, 1 test]. For the same molecule, in the test with SNB-75 CNS, the TGI was 317 nM [sample A, 1 test] and 4.31 µM [sample B, mean of 2 tests].
As for `COC1OC(COC(C)=O)C(OC(C)=O)C(OC(C)=O)C1NC(=O)N(CCCl)N=O` (stereo unspecified), the GI50 in the test with SK-MEL-2 melanoma is 2.77 µM [sample A, 1 test] and > 100 µM [sample B, 1 test].
